Reference: PubChem BioAssay AID1347073 (National Center for Advancing Translational Sciences (NCATS), 2019)
Among all 45,000 compounds or so, about 200 (0.44%) were called active. Not shown: some 7% with an inconclusive outcome. The call rests on the fitted dose curve; in most records, active means well fitted activation curve with a large enough effect; inconclusive means small, poorly fitted or top-dose-only effect; inactive means no such curve, though single readings can be large or run the other way. The list shows a part of the results.

Test: qHTS of TDP-43 Inhibitors: NCGC Sytravon Library Screen; further: 0% is about no effect; nearly all actives have a fitted effect of over 55% in size
Conditions: yeast TDP-43 toxicity rescue, BacTiter-Glo growth, 24 h; series mostly up to 46.1 µM; growth rescue (activation): at the top concentration
How it was run: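 TDP-43-expressing yeast, pregrown in raffinose, seeded at OD600 0.02 in galactose medium with compound for 24 hr at 30 deg C. Growth read by BacTiter-Glo luminescence, so rescue of toxicity appears as activation.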

Compound	growth rescue (activation)
COc1ccc(C(C)NC(=O)Cc2ccc(Br)cc2)cc1 (centres undefined)	inactive: 11%
O=C(Cc1cccs1)N1CCN(c2ccccn2)CC1	inactive: -1.44%
O=C(Cc1c(F)cccc1Cl)OCN1C(=O)c2ccccc2C1=O	inactive: 17.1%
O=C(O)CNc1nc(-c2ccccc2)c2cc([N+](=O)[O-])ccc2n1	inactive: 9.84%
CCc1nc(Nc2ccc(O)cc2)c2oc3ccccc3c2n1	inactive: 18.2%
CC(C)=CCN1CCN(Cc2cc(CC(C)C)n[nH]2)CC1CCO (centres undefined)	inactive: -30.8%
COc1cc(OC)c(NC(=O)CC(C)=O)cc1Cl	inactive: 27.8%
COc1cccc(C(=O)NNC(=O)C(=O)N2CCCCC2)c1	inactive: -1.27%
O=C(CNC(=O)c1ccc(Cl)cc1Cl)OCc1nc2ccccc2s1	inactive: 5.65%
NC(=O)CCc1nc2cc(C(F)(F)F)ccc2n(Cc2ccccc2)c1=O	inactive: 9.73%
Cc1ccccc1/C=C\c1nc2ccccc2c(=O)n1Cc1ccccc1	inactive: 10.4%
CC(=O)c1ccc(NC(=O)C2CCCN(S(=O)(=O)c3ccc(-n4cnnn4)cc3)C2)cc1 (centres undefined)	inactive: 15.6%
O=C(NNC(=O)C1[C@H]2CCCC[C@@H]12)Nc1cccc2ccccc12 (some centres undefined)	inactive: -7.97%
COc1cccc(N2CCN(C3OC(=O)c4ccccc43)CC2)c1 (centres undefined)	inactive: 12.6%
O=C(C1CCCN(S(=O)(=O)c2cccc3nsnc23)C1)N1CCc2ccccc2C1 (centres undefined)	inactive: 37.9%
COc1ccc(CNC(=O)CSc2cc(=O)n(C)c3ccccc23)cc1	inactive: 5.28%
COc1ccccc1NC(CC(=O)c1ccccc1)C(=O)OCC(=O)c1ccc(F)cc1 (centres undefined)	inactive: 8.41%
O=C(NC1CCCCC1)C1CC(=O)N(c2ccccc2)C1 (centres undefined)	inactive: -15.8%
Cc1cc(C)c(S(=O)(=O)CCC(C)C)c(=O)[nH]1	inactive: 6.45%
Cc1sc2c(c1C)CN(CCN1CCOCC1)CN2C(=O)c1ccccc1	inactive: -2.04%
CCOc1cc(CNCc2cccs2)ccc1OCC(=O)NC(C)(C)C	inactive: 14.7%
CCc1ccc(NC(=O)CC2C(=O)N(c3ccc(C)cc3)C(=O)N2CCc2ccncc2)cc1 (centres undefined)	inactive: -3.6%
CC(OC(=O)CC(NC(=O)c1ccccc1Cl)c1ccccc1)C(=O)Nc1cccc(Cl)c1Cl (centres undefined)	inactive: 15.4%
NC(=O)NC(=O)COC(=O)CCSc1ccccc1	inactive: 0.916%
CCN(CC)CCNC(=O)c1ccc(-n2c(C)cc3c2CCCC3=O)cc1	inactive: 11.9%
Cc1ccc(S(=O)(=O)N2CC=C(C(=O)NCCC(C)C)CC2)cc1	inactive: 9.27%
CC(C)CCN1CCNC(=O)C1CC(=O)N(C)CCCN1CCOCC1 (centres undefined)	inactive: 18.9%

Compound	growth rescue (activation)
CCOc1ccc(Br)cc1S(=O)(=O)N1CCCN(C)CC1	inactive: -7.5%
Cc1ccc(NC(=S)N(CCCN2CCCC2)Cc2cccn2Cc2ccc(Cl)cc2)cc1	inactive: -5.72%
Cc1onc(-c2ccccc2)c1C(=O)Nc1nnc(CC(C)C)s1	inactive: -3.34%
C=CCn1c(O)c(C=Nc2ccccc2)sc1=S	inactive: 2.65%
C/C(=N\NC(=O)c1ccc(N/N=C(\C)c2ccncc2)cc1)c1ccncc1	inactive: 14.9%
CC(=O)Nc1ccc(S(=O)(=O)N2CCN(Cc3cccs3)CC2)cc1	inactive: -3.77%
Cc1cc(-c2nn(-c3ccccc3F)cc2CN2CCN(c3ccccn3)CC2)c(C)s1	inactive: 1.15%
CC(=O)N1CCN(c2ccc(NCc3cccc4ccccc34)cc2)CC1	inactive: 6.42%
O=C(O)CCNS(=O)(=O)c1ccc2c(c1)CCCC2	inactive: 4.85%
CCN(Cc1ccccc1)C(=O)C1CCN(CC2CC=CCC2)CC1 (centres undefined)	inactive: 3.3%
CN(CC(=O)Nc1cccc(F)c1)CC(=O)Nc1cccc(S(=O)(=O)N(C)c2ccccc2)c1	inactive: 20.4%
COc1ccc(C)cc1NCc1cc(=O)oc2cc(-c3ccccc3)c(O)cc12	inactive: 26.6%
Nc1ncnc2c1ccn2[C@H]1CN(Cc2ccc(Cl)cc2)C[C@@H](CO)O1	inactive: 8.57%
COc1ccccc1N1CCN(c2nc(C)cc(=O)[nH]2)CC1	inactive: 1.46%
COC(=O)c1ccc(CNCC(O)COc2ccc(-c3ccccc3)cc2)cc1 (centres undefined)	inactive: 2.74%
COc1ccc(-c2cc(C(=O)OCC(=O)Nc3cc(C)on3)c3ccccc3n2)cc1OC	inactive: 0.438%
COCCn1cnc2c1c(=O)n(Cc1cc(C(C)=O)ccc1OC)c(=O)n2Cc1ccccc1	inactive: 11.9%
COc1ccc(OC)c(-c2cc(C(F)(F)F)c3c(n2)sc2c(O)cc(=O)[nH]c23)c1	inactive: 8.78%
Cc1ccc2cc(C)c(SCC(=O)Nc3ccc(S(=O)(=O)N4CCCC4)cc3)nc2c1	inactive: 5.99%
Cc1ccc([N+](=O)[O-])cc1NC(=S)NC(=O)c1cccs1	inactive: 12%
CCOC(=O)C1CCN(C(=O)COc2ccc3c(c2)OCO3)CC1	inactive: 7.43%
COc1ccc(Cl)cc1N(CC(=O)NC(C)(C)C)S(=O)(=O)c1ccc(C)c([N+](=O)[O-])c1	inactive: 10.6%
COc1ccc(-c2[nH]ncc2C(=O)NCc2ccc(F)cc2)cc1	inactive: -5.59%
Cc1[nH]c2ccccc2c1/C=N/NC(=O)CNC(=O)c1cccs1	inactive: 21.9%
Cc1csc(NC(=O)CCC(=O)N(CC(=O)NC2CCCC2)Cc2ccccc2)n1	inactive: 9.17%
O=S(=O)(c1ccc(Cl)cc1)N1CCNCC1	inactive: 2.27%
CC(=O)NCc1ccc(-c2nc3ccccc3s2)cc1	inactive: -8.82%
